Molecules are shown by their SMILES. About 14,000 (4.5%) of roughly 310,000 compounds showed an effect of 50% or more. The effect is printed as a negative number. The list shows a part of the results.
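Further: peak tail current of the secondary pulse compared with the same well before compound.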

human ether-à-go-go-related gene (hERG) potassium channel, sequence (Q12809 whole entry, looked up): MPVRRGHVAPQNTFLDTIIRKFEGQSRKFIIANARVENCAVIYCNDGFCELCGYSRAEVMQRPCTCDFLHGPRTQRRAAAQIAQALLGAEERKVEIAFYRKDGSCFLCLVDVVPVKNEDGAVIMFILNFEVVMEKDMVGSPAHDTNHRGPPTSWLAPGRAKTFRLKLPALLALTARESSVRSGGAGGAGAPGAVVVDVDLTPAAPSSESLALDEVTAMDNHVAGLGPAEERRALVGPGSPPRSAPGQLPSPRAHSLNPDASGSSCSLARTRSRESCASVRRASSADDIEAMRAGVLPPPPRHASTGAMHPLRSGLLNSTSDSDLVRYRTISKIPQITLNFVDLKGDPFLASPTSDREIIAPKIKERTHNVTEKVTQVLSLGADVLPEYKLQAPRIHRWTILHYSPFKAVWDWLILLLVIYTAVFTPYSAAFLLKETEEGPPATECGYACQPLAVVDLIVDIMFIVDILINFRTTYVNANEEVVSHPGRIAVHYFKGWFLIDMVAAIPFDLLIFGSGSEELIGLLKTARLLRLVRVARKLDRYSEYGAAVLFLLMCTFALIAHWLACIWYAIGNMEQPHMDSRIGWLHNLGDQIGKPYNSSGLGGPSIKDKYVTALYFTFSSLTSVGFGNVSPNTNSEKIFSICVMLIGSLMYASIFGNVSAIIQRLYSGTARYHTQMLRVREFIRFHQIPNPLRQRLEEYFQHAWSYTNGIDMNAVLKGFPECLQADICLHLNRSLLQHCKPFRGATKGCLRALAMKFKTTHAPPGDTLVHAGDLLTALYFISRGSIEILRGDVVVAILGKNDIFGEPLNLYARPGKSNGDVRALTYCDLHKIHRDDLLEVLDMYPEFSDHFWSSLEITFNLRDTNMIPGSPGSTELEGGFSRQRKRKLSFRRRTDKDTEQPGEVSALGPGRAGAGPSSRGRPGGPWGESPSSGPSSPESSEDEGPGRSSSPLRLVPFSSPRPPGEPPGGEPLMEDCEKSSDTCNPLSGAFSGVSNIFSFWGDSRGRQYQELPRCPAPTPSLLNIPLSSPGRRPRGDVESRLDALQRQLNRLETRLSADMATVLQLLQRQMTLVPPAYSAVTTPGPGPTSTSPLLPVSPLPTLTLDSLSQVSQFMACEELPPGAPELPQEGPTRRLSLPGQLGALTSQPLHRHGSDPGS

The assay addresses human ether-à-go-go-related gene (hERG) potassium channel (human, UniProt Q12809). Kind of assay: primary screen, population patch clamp on CHO cells stably expressing hERG.
`CCOC(=O)C1=C(c2ccccc2)OC(N)=C(C#N)C1c1ccncc1` (stereo not drawn): the “hERG current change (%, negative = inhibition) at 10uM” value is -11.3%.
Next, `CC(C)CCN1CCN(Cc2cccc3nonc23)CC1CCO` (stereo not drawn): -16.7%; `CC(NC(=O)CSc1nc2ccccc2n1C)c1ccccc1` (stereo not drawn): 19.8%; `Cc1nn(Cc2cccc(C(=O)N3N=C(C(F)F)CC3(O)C(F)F)c2)c(C)c1[N+](=O)[O-]` (stereo not drawn): -19.6%.
Consider `CC(=O)Nc1ccccc1Nc1cc(C#N)c(C#N)cc1[N+](=O)[O-]`, for which the “hERG current change (%, negative = inhibition) at 10uM” value turned out to be 0.808%.
In the case of `COc1cc2c(cc1OC)C(c1ccc(Cl)cc1)=NCC2` it was -43.6%; in that of `CCN(C(=O)CN1CCN(S(=O)(=O)c2ccccc2C(F)(F)F)CC1)c1c(N)n(Cc2ccccc2)c(=O)[nH]c1=O`, 13.6%; in that of `N#CCCn1cc(C(=O)Nc2ccccc2Br)c(-c2ccc([N+](=O)[O-])cc2)n1`, -46.9%.
In the case of `CC(=O)c1cn(C2OC(CO)C3OC(C)(C)OC32)c(=O)n(C)c1=O` (stereo not drawn) it was 5.02%; in that of `OC(CN1CCCCC1)Cn1c2ccc(Cl)cc2c2cc(Cl)ccc21` (stereo not drawn), -29.6%; in that of `CCNC(=S)N(Cc1cccs1)Cc1cc2cc(OCC)ccc2[nH]c1=O`, -5.5%.
In the case of `Cc1nnsc1C(=O)NC(C)C12CC3CC(CC(C3)C1)C2` (stereo not drawn) it was 7.88%; in that of `COc1ccccc1NC(=O)CN1CCCCCC1`, 8.66%.
As to `C/C(=N\NC(=O)c1nn(C)cc1Br)c1cccc(NC(=O)C(C)(C)C)c1`, the “hERG current change (%, negative = inhibition) at 10uM” value is on record as 4.48%.
Turning to `COc1ccccc1Oc1ccc(S(=O)(=O)NCc2ccccn2)cc1`, the “hERG current change (%, negative = inhibition) at 10uM” value is reported as 4%.
Turning to `Cc1ccc(S(=O)(=O)NCCC(=O)NC2CC2)cc1`, the “hERG current change (%, negative = inhibition) at 10uM” value worked out at 15.7%.
In the case of `CC(C)CN(C)C(=O)CCc1nnc(Cc2cccc(C(F)(F)F)c2)o1`, the “hERG current change (%, negative = inhibition) at 10uM” value is recorded as -4.9%.
Next, `O=C(NCC(=O)N1CCOCC1)c1ccc(Br)cc1`: -0.151%.
Next, `O=C(O)c1ccc(CNS(=O)(=O)c2ccc(Oc3ccccc3Cl)cc2)cc1`: 11.3%; `CCN(CC)S(=O)(=O)c1cc(C(=O)Nc2ccccc2C(=O)O)ccc1OC`: 19.2%; `N/C(=N\OC(=O)c1cccc2ccccc12)c1ccncc1`: -2.64%.
With `Cc1nn(Cc2c(F)c(F)c(F)c(F)c2F)c(C)c1NC(=O)c1nn(C)cc1[N+](=O)[O-]`, the “hERG current change (%, negative = inhibition) at 10uM” value was -3.38%.
In the case of `FC(F)(F)c1cccc(Cn2nnnc2-c2ccc(Cl)cc2)c1` it was 12.6%; in that of `Nc1nccc(-c2cccs2)n1`, 12%.
In the case of `COc1ccc(-c2cc(C(=O)OCC(=O)Nc3ccc4c(c3)OCO4)c3ccccc3n2)cc1` it was -8.35%.
Take `CC1CCN(C(=O)c2ccc(S(=O)(=O)N3CCOCC3)cc2)CC1`: the “hERG current change (%, negative = inhibition) at 10uM” value worked out at 24.9%.
For the compound `Cn1c(SCC(=O)NC2CCCCC2)nnc1-c1ccccc1F`, the “hERG current change (%, negative = inhibition) at 10uM” value came to 11%.
In the case of `CCN1CCN(C(c2cc3cccc(C)c3[nH]c2=O)c2nnnn2Cc2ccccc2)CC1` (stereo not drawn) it was -16.4%; in that of `Cc1cccc(C)c1OCc1cc(C(=O)NCc2cn(C)nc2C)no1`, -10.5%; in that of `CCCC(=O)Nc1cc(Cl)ccc1N1CCN(C(=O)CC)CC1`, -33.1%.
Next, `C=CCNC(=O)c1c(N)n(Cc2ccco2)c2nc3ccccc3nc12`: -0.79%.
Turning to `O=C(CCN1C(=O)c2ccccc2C1=O)NC1=NCCS1`, the “hERG current change (%, negative = inhibition) at 10uM” value was determined as 14.8%.
For `COC(=O)c1n[nH]n(-c2cc(Cl)cc(Cl)c2)c1=O`, the “hERG current change (%, negative = inhibition) at 10uM” value turned out to be 14.6%.
Next, `O=C(N/N=C/c1ccc(OCc2ccccc2)cc1)c1ccncc1`: 13.3%.
As to `Cc1nnc(NC(=O)CSc2nnc(Cc3cccn3C)n2-c2cccc(C(F)(F)F)c2)s1`, the “hERG current change (%, negative = inhibition) at 10uM” value stood at 9.56%.
Regarding `CCOc1cc(CNCCc2ccc(S(N)(=O)=O)cc2)ccc1OCc1ccc(Cl)cc1.Cl`, the “hERG current change (%, negative = inhibition) at 10uM” value is given as -18.5%.
Next, `Cc1ccc(-c2csc3nc4ccc(C(=O)NCCO)cc4c(=O)n23)cc1`: 12.1%; `Cc1cc(/C=N/NC(=O)c2cccc([N+](=O)[O-])c2)c(C)n1-c1ccc(Cl)cc1Cl`: -1.61%.
In the case of `Cc1cc(C)cc(C(=O)NC(CC(N)=O)c2ccc(NCCN3CCCC3)c([N+](=O)[O-])c2)c1` (stereo not drawn) it was 10.5%; in that of `COc1cccc(N2CCN(C(=O)c3cc4c(=O)n(Cc5ccccc5)ccc4nc3C)CC2)c1`, -49.8%; in that of `CCOC(=O)C1CC(c2ccccc2)=NNC1=O` (stereo not drawn), -37.6%.
In the case of `Cn1c(=O)c(Sc2ccccc2)c(O)c2ccccc21` it was 17.1%.

(Values after PMC4336329 (PLoS ONE, 2015).)
